Assay results from the supplement of paper PMC3334620.
Whole data set: some 33,000 sequences, median “E-score (-0.5 to 0.5)” near -0.011, cut for the highest 2% near 0.28. Some of the results follow.

Molecular target: T1, Gcr1 (UniProt P07261)
T1 sequence: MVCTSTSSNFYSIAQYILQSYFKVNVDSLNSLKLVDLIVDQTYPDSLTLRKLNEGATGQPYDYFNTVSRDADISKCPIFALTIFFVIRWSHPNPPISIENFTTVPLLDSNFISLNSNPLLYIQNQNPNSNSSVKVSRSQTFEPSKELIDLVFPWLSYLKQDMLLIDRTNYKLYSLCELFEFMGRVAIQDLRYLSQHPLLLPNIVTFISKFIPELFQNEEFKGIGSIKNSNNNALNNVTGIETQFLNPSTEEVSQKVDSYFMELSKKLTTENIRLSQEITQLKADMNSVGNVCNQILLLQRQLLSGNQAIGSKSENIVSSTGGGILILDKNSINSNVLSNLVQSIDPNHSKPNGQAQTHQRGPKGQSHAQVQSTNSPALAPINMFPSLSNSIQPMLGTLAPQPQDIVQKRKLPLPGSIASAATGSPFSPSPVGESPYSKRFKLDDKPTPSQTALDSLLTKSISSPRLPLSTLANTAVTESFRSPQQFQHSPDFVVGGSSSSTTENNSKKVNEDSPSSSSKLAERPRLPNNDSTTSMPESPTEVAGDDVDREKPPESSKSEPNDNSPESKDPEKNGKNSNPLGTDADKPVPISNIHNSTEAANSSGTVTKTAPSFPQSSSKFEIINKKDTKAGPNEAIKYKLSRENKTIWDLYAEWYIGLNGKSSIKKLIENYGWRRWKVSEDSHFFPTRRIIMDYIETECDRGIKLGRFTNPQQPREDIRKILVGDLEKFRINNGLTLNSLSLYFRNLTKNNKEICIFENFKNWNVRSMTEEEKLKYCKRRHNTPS
Assay: PBM E-score (8-mer binding enrichment) (E-score (-0.5 to 0.5)); higher = stronger / more preferred TF binding; most listed sequences are background and not binding sites
Details: protein concentration: 100 nM; construct: GST-full length
Protocol: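 Universal 'all 10-mer' protein binding microarrays (Agilent AMADID 015681) probed with GST-tagged S. cerevisiae TFs (full-length or DBD) made by in vitro transcription/translation (PURExpress), about 100-200 nM. Bound TF was detected with fluorescent anti-GST. Each ungapped 8-mer (which stands for itself and its reverse complement) is scored by the PBM enrichment score (E-score), a modified Wilcoxon-Mann-Whitney statistic from -0.5 to +0.5, computed with the Universal PBM Analysis Suite. Scale: above 0.35 generally sequence-specific binding.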

Sequence | PBM E-score
TCACAGGA | 0.117
ATGGCAGA | -0.00984
ATTGATCG | 0.0313
AAACTGCG | -0.0517
ATGCGCGG | -0.231
GTTTGTTA | 0.074
CACACCAC | 0.142
AATCCTTC | -0.217
TACGTTCA | -0.174
CAACGTGA | 0.0644
ATGATGCG | 0.0591
CCGCGCCG | -0.0482
CCCGAGTC | -0.219
CCAGCAAC | 0.227
CGGATTTA | -0.0267
AGACATAC | -0.107
AGAGGCAT | 0.223
ATCGTAGC | -0.0134
GACAACTA | -0.0831
AAGCATAA | 0.172
GATGCTAA | 0.372
ACTCCGGC | 0.0577

Sequence | PBM E-score
ACGGCGAC | -0.00151
AATTTAGG | 0.206
AGCGTCCG | 0.165
AGTGTGAA | -0.11
GAATGTTA | 0.0174
AAAGAGAC | 0.0252
ATGCATCG | -0.0288
GTCATGTA | 0.137
GCGATCAA | 0.0409
TCAATCCA | -0.128
ATGGGTTG | 0.0709
CTAAGCAG | -0.0109
GCACCCAA | 0.303
CTACCCTC | -0.224
ACCAGCAA | 0.0307
ACGAGCCT | -0.0689
AGCTAGAC | 0.113
AGCGTATC | 0.184
CGTAGGCC | -0.185
GCCCTCGA | -0.0995
GATTGGCA | 0.0933
GGACTTAC | -0.113

Sequence | PBM E-score
CCGGTCCG | -0.0945
CCCGTCTC | -0.0723
TCCGAGGA | 0.174
ATGAGATA | 0.104
CCTCCTGA | 0.0439
CAGTCGTC | -0.224
CATCGAGC | -0.165
CTCCGGTC | -0.171
GAATGGCC | -0.116
AGCGTCTC | 0.22
AAGGACCG | -0.192
CAGCGTAG | 0.0413
CATGTCGG | -0.16
GACACGTA | -0.0389
GGCTCACA | -0.0642
AGTCCTAG | -0.167
CCTCCGTA | -0.0539
GAGTATGC | -0.0589
CTACTTAA | 0.195
CATTCAAG | -0.0372
AAGCGTTG | -0.2
AGGAGAGC | -0.137

Sequence | PBM E-score
CTATAGCA | 0.041
CGGAGCCC | 0.218
AGAAGACA | -0.0574
TATTTCCA | 0.171
CGTGGTAC | -0.227
AAAAATGG | 0.145
TCCATACA | 0.171
ACTTGACC | -0.198
ACCGTGAC | -0.182
CCGGGCAG | 0.0407
CAGCCGCG | 0.0333
ATACAGTA | -0.112
GCGGAAGC | 0.314
GTGATAGA | -0.133
GCAATGAA | -0.116
ACTTCACT | -0.0657
AGTTGGCA | 0.107
AATAAGGA | -0.0501
ATTTAAAG | 0.198
GGCTTAGA | -0.00607
